Experimental data: the supplement of paper PMC12217912
This is one part of the list. The full chains were built here from the parent and the listed change. Values near 0.05 are background.

B1: TEV protease; numbered along this chain (parent)
chain: MGESLFKGPRDYNPISSSICHLTNESDGHTTSLYGIGFGPFIITNKHLFRRNNGTLVVQSLHGVFKVKDTTTLQQHLVDGRDMIIIRMPKDFPPFPQKLKFREPQREERICLVTTNFQTKSMSSMVSDTSCTFPSGDGIFWKHWIQTKDGQCGSPLVSTRDGFIVGIHSASNFTNTNNYFTSVPKNFMELLTNQEAQQWVSGWRLNADSVLWGGHKVFMVKPEEPFQPVKEATQL

Variants of: B1
Assay: raw area under fraction-flipped curve 0-4 h after induction (AUC4h, not background-subtracted), DNA-recorder readout of cleavage of the substrate (dimensionless); higher = more cleavage of the substrate by the protease variant
Conditions: temperature: 34 °C; time window: 0-4 h after rhamnose induction
Experimental: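 In vivo DNA recorder in E. coli TOP10(DE3) ΔrhaA at 34 °C. Each TEVp single-site mutant (parent TEVp 0) is paired with a single-site variant of the 7-mer TEVs (canonical ENLYFQ|S). The substrate sits between flexible linkers in a Bxb1-sfGFP-TEVs-SsrA fusion, so cleavage stabilises Bxb1 and speeds flipping of a recombination array, read by NGS. The value is the raw area under the fraction-flipped curve over 0-4 h after rhamnose induction (AUC4h), with ≥20 reads per time point. It is not background-subtracted; inactive controls average about 0.047.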
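Further: Bxb1 expression induced with 0.2% (w/v) L-rhamnose at OD600 near 0.5, cultures sampled hourly, flipped fraction per protease–substrate barcode pair counted by paired-end Illumina sequencing.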

Variant | area with substrate ENAYFQS | area with substrate ENDYFQS | area with substrate ENEYFQS | area with substrate ENGYFQS | area with substrate ENHYFQS | area with substrate ENIYFQS | area with substrate ENMYFQS | area with substrate ENNYFQS | area with substrate ENQYFQS | area with substrate ENSYFQS | area with substrate ENTYFQS | area with substrate ENVYFQS | area with substrate ENWYFQS | area with substrate ENYYFQS | area with substrate ENCYFQS | area with substrate ENKYFQS | area with substrate ENRYFQS | area with substrate ENFYFQS | area with substrate ENPYFQS
K142C | 0.0648 | 0.0662 | 0.0611 | 0.0633 | 0.0512 | 0.0927 | 0.0703 | 0.0766 | 0.0608 | 0.0554 | 0.0839 | 0.0683 | 0.0462 | 0.0713 | – | – | – | – | –
K142V | 0.0538 | 0.0681 | 0.0576 | 0.0631 | 0.0586 | 0.0881 | 0.113 | 0.058 | 0.0858 | 0.0285 | 0.0559 | – | 0.025 | – | 0.0684 | 0.0569 | 0.0604 | – | –
H143M | 0.0578 | 0.075 | 0.0506 | – | 0.0608 | 0.0685 | 0.0578 | 0.0571 | 0.0624 | 0.0659 | 0.0665 | 0.0537 | – | 0.0611 | 0.0464 | – | 0.066 | 0.071 | 0.0503
V157Y | 0.0391 | 0.057 | 0.0643 | – | – | 0.0698 | – | – | 0.0553 | – | 0.0542 | – | 0.0413 | – | – | 0.0554 | – | 0.0565 | 0.0484
V157I | 0.0555 | 0.0594 | 0.0635 | 0.0643 | – | 0.0631 | – | 0.0597 | 0.0368 | – | 0.064 | – | 0.0068 | – | – | 0.0479 | 0.0637 | 0.0813 | –
V157M | 0.0578 | 0.0672 | 0.0643 | 0.0766 | – | 0.12 | 0.0767 | 0.068 | 0.0626 | 0.129 | 0.0654 | – | – | – | 0.062 | 0.0665 | 0.0506 | 0.0594 | 0.0594
